Target: TCR Vδ2 (TRDV2) (human), A0JD36
Assay: cell-based or functional assay

CD25+ (Vg9+ cells), flow staining: 30.3%
CD71+ (Vg9+ cells), flow staining: 95.3%
Vg9 T cell %, flow staining: 2%
B1: VG9B169 (antibody, human IgG1, lambda)
heavy: EVQLLESGPGLVKPSETLSLTCSVSGGSITNYFWNWIRQPPGKGLEWIGYIFYSGSTSYNPSLKSRVTISVDTSKNRFSLKLISVTAADTAVYYCARVGRWELRTAFDIWGQGTMVTVSS[human IgG1 constant region omitted here]
light: QSALTQPPSASGTPGQRVTIS[about 80 residues omitted here][about 120 residues omitted here]

From patent publication US20220125947A1
